The full ranking holds about 110,000 compounds; the median of “z-score” is about -0.1, and the highest 2% start at about 2. Some of the results follow.
target: Metabotropic glutamate receptor 8 (Rattus norvegicus) (UniProt P70579); experiment: rat mGluR8 modulators via GIRK flux, primary screen, cell-based, thallium flux, HTS (AID 488969); conditions: HEK293 rat mGluR8, GIRK (G protein-gated inwardly rectifying potassium channel) thallium flux, FluoZin2; at 10 µM; stronger effect = higher value; submaximal glutamate (EC20) added with thallium
Chain of UniProt P70579 (P70579 whole entry, looked up): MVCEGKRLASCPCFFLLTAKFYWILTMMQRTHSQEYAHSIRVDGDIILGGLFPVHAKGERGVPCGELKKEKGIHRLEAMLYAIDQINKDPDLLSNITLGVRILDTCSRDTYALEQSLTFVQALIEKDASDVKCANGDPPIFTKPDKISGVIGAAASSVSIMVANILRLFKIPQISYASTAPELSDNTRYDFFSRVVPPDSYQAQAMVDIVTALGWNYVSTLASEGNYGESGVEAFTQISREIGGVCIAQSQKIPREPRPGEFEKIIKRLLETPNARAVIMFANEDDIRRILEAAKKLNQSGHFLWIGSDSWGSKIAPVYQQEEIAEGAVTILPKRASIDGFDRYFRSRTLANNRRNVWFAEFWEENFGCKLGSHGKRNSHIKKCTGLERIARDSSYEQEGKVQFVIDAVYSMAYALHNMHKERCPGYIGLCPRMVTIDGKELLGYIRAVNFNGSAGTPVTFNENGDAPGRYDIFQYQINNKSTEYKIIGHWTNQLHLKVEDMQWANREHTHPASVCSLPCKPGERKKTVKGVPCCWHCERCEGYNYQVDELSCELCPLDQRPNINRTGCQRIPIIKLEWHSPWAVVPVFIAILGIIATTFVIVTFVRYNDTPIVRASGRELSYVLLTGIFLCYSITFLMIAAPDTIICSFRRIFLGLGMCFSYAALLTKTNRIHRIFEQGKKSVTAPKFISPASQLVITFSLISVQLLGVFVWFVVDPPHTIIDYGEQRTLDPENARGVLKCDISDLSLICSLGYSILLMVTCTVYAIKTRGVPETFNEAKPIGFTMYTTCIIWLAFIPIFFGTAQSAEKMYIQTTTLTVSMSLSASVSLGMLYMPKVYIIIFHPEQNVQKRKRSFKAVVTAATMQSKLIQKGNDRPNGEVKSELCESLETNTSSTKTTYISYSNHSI

SMILES | z-score
CCCn1nc(NC(=O)c2ccncc2)c2cc3ccccc3nc21 | -0.268
CC(C)COc1ccc(/C=C2/Sc3ccccc3C2=O)cc1 | -0.0988
Cc1ccc(C)c(NC(=S)NC(NC(=O)/C=C/c2ccccc2)C(Cl)(Cl)Cl)c1 (centres undefined) | -0.264
CC(C(=O)N1CCOCC1)N1C(=O)c2ccccc2C1=O (centres undefined) | -0.0607
O=C(Nc1c(C(=O)N2CCCCC2)cnn1-c1ccccc1)c1ccco1 | -0.0397
CCCCCC(=O)NNC(=O)c1ccc(F)cc1 | 0.0375
BrC(/C=N/Nc1nc(N2CCOCC2)nc(N2CCOCC2)n1)=C/c1ccccc1 | -0.171
CC(=O)NS(=O)(=O)c1ccc(NC(=O)CCC2CCCC2)cc1 | 0.114
CCOc1ccc(C2c3cc(OC)c(OC)cc3CC(=O)N2c2ccccc2)cc1 (centres undefined) | -0.702
Cc1cc2ncn(C(=O)c3c(-c4ccccc4)noc3C)c2cc1C | -0.303
CC12CCC(C(=O)NCc3cccnc3)(OC1=O)C2(C)C (centres undefined) | -0.201
c1cncc(-c2nn3cnnc3s2)c1 | 0.268
COc1cc(OC)c(C2N(c3cc(C)on3)C(=O)C3CCCN32)cc1OC (centres undefined) | 0.0605
COC(=O)c1cc(OC)c(OC)cc1N=CC1=C(O)CC(C)(C)CC1=O | -0.493
COc1cccc(-n2nc3c(-n4ncc(C#N)c4N)nnc(C)c3c2C)c1 | 0.0095
Cc1ccc(CNC(=O)c2ccc(CNc3c(N4CCCC4)c(=O)c3=O)cc2)cc1 | -0.0913
Cc1ccc(-c2ccc(SCC(=O)c3ccccc3)nn2)cc1 | 0.138
COc1ccc(Cl)cc1NC(=S)NCCC(c1ccccc1)c1ccccc1 | -0.105
Cc1nc(CC(=O)c2ccc(O)cc2O)cs1 | 0.257
COc1cc(-c2nc(Cc3c(F)cccc3Cl)no2)cc(OC)c1OC | -0.564
CCCCN(CCCC)c1nc2ccccc2nc1NS(=O)(=O)c1ccc(NC(C)=O)cc1 | -0.388
O=C(Nc1cc(C(F)(F)F)ccc1N1CCCC1)c1ccc2c(c1)OCO2 | -0.575
COC(=O)CSC1=C(C#N)C(c2ccc(C)cc2)C2=C(CCCC2=O)N1 (centres undefined) | -1.41
CCOc1cc2[nH]c(=S)n(CC3CCCO3)c(=O)c2cc1OCC (centres undefined) | -0.137
CC1CCCCC1NC(=O)Cn1c(CN2CCCCC2)nc2ccccc2c1=O (centres undefined) | -0.365
COc1cccc(OCCCCN2CC(C)OC(C)C2)c1 (centres undefined) | -0.101
CCCN(c1ccc(OCC)cc1)S(=O)(=O)c1ccc2c(c1)CCN2C(=O)CCC(=O)O | -0.582

SMILES | z-score
O=C(COc1cccnc1[N+](=O)[O-])Nc1cccc(S(=O)(=O)N2CCCCC2)c1 | -0.289
CCC(=O)NC(=S)Nc1ccc(NC(=O)c2ccc([N+](=O)[O-])cc2Cl)cc1 | -0.222
O=C(N1CCCCC1)N1CCN(C(c2ccccc2)c2ccccc2)CC1 | -0.436
CCOc1ccc(C(=O)NC(=S)Nc2ccccc2N2CCCCC2)cc1[N+](=O)[O-] | 0.917
c1ccc(-n2c(SCC3CCCCO3)nnc2-c2cccs2)cc1 (centres undefined) | -1.71
Cc1ccc(C(=O)CSc2nn3c(=O)c(C(C)(C)C)nnc3s2)cc1 | -0.119
On1c2c(c3c4nonc4ccc31)CCCC2 | -1.23
CCOC(=O)c1c(-c2ccccc2)nc2cc(C)ccn12 | -0.492
CCOC(=O)/C(C#N)=c1/s/c(=C2\C=Cc3ccccc3N2CC)c(=O)n1CC | -0.143
CN(C)C(=O)CSc1nnc(C23CC4CC(CC(C4)C2)C3)o1 | -0.443
N#Cc1cc(-c2ccccc2)cnc1Cl | -0.0944
Cc1oc(C(=O)O)cc1CSc1nnc(-c2ccccc2)n1C | 0.27
O=C(N/N=C/c1cccc([N+](=O)[O-])c1)c1cc2ccccc2o1 | -0.259
Nc1cccc2c1C(=O)N(C(=O)c1cccc(S(=O)(=O)N3CCCCCC3)c1)C2=O | -0.139
COc1ccc2c(c1)OC1=C(C(=O)CCC1)C2C1=C(O)CCCC1=O (centres undefined) | -0.457
COCCn1c(Sc2nc(C)cs2)nc2c1c(=O)[nH]c(=O)n2C | -0.415
CC(=O)c1cccc(NC(=O)C2CCN(S(=O)(=O)c3cccs3)CC2)c1 | 0.399
Cc1cc(=O)[nH]c2c1c(C)nn2C1CCCCC1 | -0.354
O=C(NCCN1CCCC1)C1CCN(S(=O)(=O)N2CCC3(CC2)OCCO3)CC1 | 0.0078
Cn1c(-c2ccccc2)cnc1SCC(=O)NCc1ccco1 | 0.716
O=C(CNC(=O)c1cc2c(s1)CCC2)Nc1ccccc1Br | -0.223
Brc1ccc(-c2csc(-c3c[nH]c4ccccc34)n2)cc1 | 0.0561
COc1ccccc1/C=c1\sc2nc(-c3ccccc3OC)nn2c1=O | -0.577
Cc1ccc2cc(COC(=O)c3ccncc3)c(=O)[nH]c2c1 | -0.162
Cc1ccc(C(=O)NC(=S)NNS(=O)(=O)c2ccc(C)cc2)cc1 | 0.234
CC1=NN(C(=O)c2ccccc2Br)C(O)(c2cccnc2)C1 (centres undefined) | -0.108
CCOC(=O)NC(Nc1sc2c(c1C(=O)OC)CCN(C)C2)(C(F)(F)F)C(F)(F)F | -0.197
